PubChem BioAssay AID1508624 (National Center for Advancing Translational Sciences (NCATS), 2021)
The whole screen tested about 48,000 compounds, of which about 120 (0.25%) were called active. Another 4% or so got no clear call; they are omitted. The call rests on the fitted dose curve; in most records, active means well fitted activation curve with a large enough effect; inconclusive means small, poorly fitted or top-dose-only effect, or another doubt; inactive means no such curve, though single readings can be large or run the other way. Some of the results follow.

Test: Primary qHTS for Identification of Small Molecule Activators of Huntingtin-Antisense Promoter Activity; further: nearly all actives have a fitted effect of over 55% in size
Conditions: HEK293 HTT-AS promoter firefly luciferase reporter (activity 0% = vehicle and -100% = no light), 24 h; series mostly up to 57.5 µM; activity change, positive = activation: at the top concentration
Summary of the method: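 HEK293 cells carrying firefly luciferase reporters were seeded at 2,500 per well in Opti-MEM and cultured for 24 h. They were then treated with compounds at up to 57.5 uM final for 24 h at 37 degrees C before Dual-Glo luminescence readout.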

Activity change, positive = activation, inactive:
CCC(=O)Nc1ccc(CC)cc1-c1nc2ccccc2n(CC(=O)Nc2cccc(Cl)c2)c1=O -35.4%, CCCCCn1cc2c(c1-c1ccc(Br)cc1)c(=O)n(C)c(=O)n2C -5.99%, COc1ccc(OC)c(NC(=O)c2cc3cc(C)ccc3n2C)c1 -5.92%, CCc1ccccc1NC(=O)Cn1c(=O)n(-c2ccc(C)cc2)c(=O)c2c1c1cc(C)ccc1n2C -2.57%, COc1cccc(NC(=O)Cn2nnc(-c3nc(-c4ccccc4)no3)c2N)c1 -17.7%, Cc1nc2ncnn2c(C)c1CCC(=O)N1CCN(c2ccccc2)CC1 -6.37%, O=C(Cn1c(=O)oc2cc(Cl)ccc21)Nc1cccc(C(F)(F)F)c1 -39.8%, CCCSCCCNC(=O)C1CCCN(c2nn3cc(-c4ccc(OC)cc4)nc3s2)C1 (stereo unspecified) -10.9%, Cn1c(=O)c(=O)n(C)c2cc(NC(=O)c3cccc(F)c3)c(Cl)cc21 -8.74%, COc1ccc(N(CC(=O)NCc2ccccc2Cl)S(=O)(=O)c2c(C)nn(C)c2C)cc1 -19.3%, COc1ccc(CCNC(=O)Cn2c(=O)nc(-c3ccccc3)c3ccccc32)cc1OC -9.93%, CCOc1ccccc1CNC(=O)CCCn1ncn2c(cc3occc32)c1=O -10.7%, CCOc1ccc(C(=O)c2cn(CC(=O)Nc3ccc(F)cc3)c3cc4c(cc3c2=O)OCO4)cc1 -30.4%, CN(C)CCCN(C(=O)c1ccc(Br)s1)c1nc2ccc(F)cc2s1 -7.36%, Cc1ccc2cccc(NC(=O)COc3cc(C)c(Cl)c(C)c3)c2n1 -5.37%, Cc1nn(CC(=O)Nc2ccccc2C(F)(F)F)c(=O)c2cccn12 -9%, CCCCN(CC)CCNC(=O)CN1C(=O)COc2ccc(S(=O)(=O)N3CCCC3)cc21 -7.32%, Cc1ccc(CCNC(=O)CCn2nc(-c3ccccc3)ccc2=O)cc1 -6.27%, CCOc1ccc(CNS(=O)(=O)c2ccc3[nH]c(=O)ccc3c2)cc1 -20%, CCC(=O)Nc1ccc2nc(SCCOc3ccccc3)sc2c1 -20.7%, CCCCOc1ccc(CNC(=O)c2ccc(NC(=O)N3CCCCc4ccccc43)cc2)cc1 -5.04%, CC(=O)Nc1nonc1-c1nnc(SCC(=O)Nc2ccccc2)n1-c1ccccc1 -11.7%, Cc1ccc(NC(=O)CSc2ncn[nH]2)cc1C -9.34%, CCOc1ccccc1NC(=O)CCc1c(C)nn(-c2ccc(N3CCOCC3)nn2)c1C -12.2%, CNS(=O)(=O)c1cn(CC(=O)Nc2cccc(OC)c2)cc1S(=O)(=O)NC 0.344%, Cc1c(Cl)cccc1NC(=O)c1noc2c1CCCC2 38.2%, COC(=O)c1ccc(-n2c(CCC(=O)O)ccc2-c2ccc(C)cc2)cc1 -9.3%, CCOC(=O)Cn1c(=O)n(CC2CCCO2)c2nc(-c3cccc(C)c3)nc(C(N)=O)c21 (stereo unspecified) 1.5%, Cn1c(=O)oc2cc(S(=O)(=O)NC(Cc3ccccc3)C(=O)NCc3ccc(F)cc3)ccc21 (stereo unspecified) 13.8%, Cc1ccc(C)c(N2CCN(Cc3nnc(-c4ccc5c(c4)OCO5)o3)CC2)c1 12.3%, COc1ccccc1OC(C)C(=O)Nc1c(C(=O)c2ccc(Cl)cc2)oc2ccccc12 (stereo unspecified) -10.4%, CCn1c(C)c(C)c2cc(C(=O)NCCCN3CCCCC3)ccc21 -11.9%, CCC(=O)N1c2ccccc2CC1C(=O)NCCN1CCN(c2cccc(C(F)(F)F)c2)CC1 (stereo unspecified) -18.6%, Cc1ccccc1CSc1nc2cc(C(=O)NC3CCCC3)ccc2c(=O)n1Cc1ccccc1 -4.06%, Cc1cc2c(cc1C)NC(CC(=O)Nc1ccccc1)C(=O)N2 (stereo unspecified) -4.17%, Cc1ccc(O)c(NC(=O)c2ccc(Br)c(S(=O)(=O)N3CCCCC3)c2)c1 -42%, CCN(Cc1ccccc1)C(=O)Cn1cc(S(=O)(=O)Cc2cccc(Cl)c2)c2ccccc21 -18.7%, CCCSc1ccc2nc(NC(=O)OC)[nH]c2c1 25.2%, CCc1ccc(NC(=O)C(=O)NCC(c2cccnc2)N2CCN(Cc3ccccc3)CC2)cc1 (stereo unspecified) -24.8%, O=C(CCCn1c(=O)c2cccn2c2ccc(F)cc21)NCc1ccc(Cl)cc1 -22.4%, Cc1ccc(-n2nc(CO)c(C(=O)NC(C)CCCc3ccccc3)n2)cc1C (stereo unspecified) -35.3%, CC1CCN(C(=O)CSc2c(C(C)C)cnc3c2c(=O)n(C)c(=O)n3C)CC1 -16.8%, COC(=O)CC1Oc2ccccc2-n2cc(-c3ccccc3)nc21 (stereo unspecified) -23.7%, O=S(=O)(c1ccccc1)c1nc(-c2ccc(Cl)cc2Cl)oc1N1CCCCC1 -16.6%, COc1ccc(C)cc1NC(=O)Cn1c(=O)cc(C)c2c(C)nn(C)c21 -93.6%, Cc1ccc(C(=O)Nc2cccc(O)c2)cc1S(=O)(=O)N1CCCCCC1 -5.54%, CCN(CC)CCCNC(=O)c1cn(CC)c2ccc(S(=O)(=O)N3CCc4ccccc4C3)cc2c1=O -5.94%, COc1cccc(CNC(=O)c2ccc3c(c2)nnn3C2CCCC2)c1 5.37%, Cc1ccc(N(CC(=O)NCc2ccc(F)cc2)S(=O)(=O)c2c(C)nn(C)c2C)cc1 -18.5%, CCCCSCCCNC(=O)c1cn(C)c2ccc(S(=O)(=O)N3CCCCC3)cc2c1=O -9.81%, COc1ccc(-n2nc(C(=O)Nc3ccc(C)cn3)c3c4ccccc4n(C)c3c2=O)cc1 -6.49%, O=C(CNC(=O)c1ccccc1F)OCc1cc(=O)n2ccsc2n1 -2.18%, CCN(CC)C(=O)Cn1c(=O)n(-c2ccc(OC)cc2OC)c(=O)c2c(C)c(C(=O)N(CC)CC)sc21 -6.8%, COc1ccc(NC(=O)c2c(-c3ccc(C)cc3)nnc3ccccc23)cc1Cl -10.3%, COc1ccccc1C(=O)Nc1nnc(SCc2cc(=O)c3cc(Cl)ccc3[nH]2)s1 -7.87%, COc1ccc(OC)c(NC(=O)Cn2ccc3ccccc3c2=O)c1 -2.04%, Cc1ccc(C)c(N2CCN(C(=O)C3CCCN(S(=O)(=O)c4cccc5nsnc45)C3)CC2)c1 (stereo unspecified) -45.5%, CCN1CCN(c2cc3c(cc2F)c(=O)c(S(=O)(=O)c2ccc(OC)cc2)cn3CC)CC1 -11.9%, Cn1c(C(=O)NCc2ccccc2F)cc2oc3ccccc3c21 10.1%, Cc1c(C(=O)Nc2cccc(C(F)(F)F)c2)sc2nc3n(c(=O)c12)CCCC3 -9.86%, O=C(c1ccco1)n1nc(-c2ccccc2)nc1NCc1ccc(F)cc1 -1.23%, COc1cccc2sc(N(Cc3cccnc3)C(=O)Cc3ccccc3)nc12 -25.6%, CCN1CCN(c2oc(-c3ccc(COc4ccc(C)cc4)o3)nc2C#N)CC1 -20.9%, CCCCNc1ncnc2c1nnn2C 10.4%, COc1ccc2oc(-c3cccc(NC(=O)c4ccc(C#N)cc4F)c3)nc2c1 17.9%, CCCCNC(=O)c1ccc2c(c1)NC(=O)C(CS(=O)(=O)Cc1cccc(C)c1)N2 (stereo unspecified) -13.8%, COc1cc(C(=O)Nc2ccc3[nH]c(=O)sc3c2)cc(OC)c1OC -5.55%, CC1=C(C(=O)Nc2cccnc2)C(c2cccc(F)c2)n2nc(SCc3ccccc3)nc2N1 (stereo unspecified) -13.4%, CC(C)C(=O)N1c2ncnn2C2(CCCCC2)[C@@H]2CCCC[C@@H]21 -36.7%, COc1cccc(NC(=O)Cn2c(=O)n(-c3ccc(Cl)cc3)c(=O)c3oc4ccccc4c32)c1 -17%, COc1ccc(C2CC(=O)N(Cc3ccc(F)cc3)c3ccccc3S2)cc1 (stereo unspecified) -49.2%, Cc1ccc(S(=O)(=O)N2CCN(Cc3noc(CCC(=O)N4CCCCC4)n3)CC2)c(C)c1 -24.1%, COc1cccc(C(=O)NCC(=O)OCc2cc(=O)n3c(C)csc3n2)c1 17.2%, CC(C)Cn1c(=O)c2sccc2n2c(CCCC(=O)NCCc3ccccc3)nnc12 -1.72%, Cc1ccc(S(=O)(=O)c2cn(CC(=O)Nc3ccc4c(c3)OCO4)c3ccccc3c2=O)cc1 -4.9%, Cc1sc2ncn(CC(=O)N3CCN(c4ccc(F)cc4)CC3)c(=O)c2c1S(=O)(=O)N1CCCCC1 8.14%, Cc1ccc(Nc2nc3c(S(=O)(=O)c4ccccc4)nnn3c3ccsc23)c(C)c1 -14.6%, Cc1cccc2sc(N(CCCN(C)C)C(=O)c3ccc(Cl)s3)nc12 -6.68%, COc1cc(C2C(C(=O)OCC(C)C)=C(C)N=C3SCCC(=O)N32)ccc1OCc1ccccc1 (stereo unspecified) -18.7%, Cc1cccc(NC(=O)Cn2nnc(C(=O)Nc3ccc(F)c(Cl)c3)c2N)c1 -18.7%, COc1cccc(NC(=O)CSc2nc(=O)n(Cc3ccco3)c3c2CCC3)c1 -54.2%, N#Cc1c(NC(=O)c2cccc3ccccc23)sc2c1CCCC2 -31.9%, CC1=C(C(=O)Nc2ccc(C)cc2C)C(C(C)C)n2nc(SCc3ccccc3Cl)nc2N1 (stereo unspecified) -12.7%, Cc1cc(C)c2nc(N(Cc3cccnc3)C(=O)c3ccc(S(=O)(=O)N(C)C)cc3)sc2c1 0.317%, C=CCC(CC=C)(CNC(=O)C(=O)Nc1cc(C)ccc1OC)c1ccc(OC)c(OC)c1 -9.53%, O=C(Cn1cc(S(=O)(=O)N2CCCC2)c(S(=O)(=O)N2CCCC2)c1)Nc1cccc(F)c1 -6.5%, COc1ccccc1CNC(=O)CN1C(=O)COc2ccc(S(=O)(=O)N3CCC(C)CC3)cc21 -14.8%, CCc1ccc(NC(=O)C(C)n2nnc3sc(-c4ccccc4)cc3c2=O)cc1 (stereo unspecified) -5.94%, CCOC(=O)c1cccc(NC(=O)C2CCCN(S(=O)(=O)c3ccc4c(c3)oc(=O)n4C)C2)c1 (stereo unspecified) -31.9%, COc1ccc(NC(=O)/C(C#N)=C/c2cc(C)n(-c3ccc(F)cc3)c2C)cc1 -8.02%, CC(C)C(=O)N(Cc1ccccc1)S(=O)(=O)c1ccc2c(c1)oc(=O)n2C -32.6%, Cc1nc2nncn2c(NCc2ccc(Cl)cc2)c1C -49.4%, Cc1ccc(-n2c(=O)c3c4c(sc3n(Cc3cccc(Cl)c3)c2=O)CCC4)cc1C -19.9%, Cc1ccc(CN(C(=O)COc2ccc(Cl)c(C)c2)C2CCS(=O)(=O)C2)o1 (stereo unspecified) -36.1%, Cc1nc2nc(SCC(=O)O)nn2c(C)c1Cc1c(F)cccc1Cl 7.28%, Cc1ccc(Cl)cc1NC(=O)Cn1c(=O)n(CCCS(=O)(=O)C2CCCCC2)c(=O)c2ccccc21 -25.4%
